Screen size: about 48,000 compounds; about 450 (0.94%) were called active. Roughly 19% stayed inconclusive and do not appear here. Calls follow the shape of the dose curve; as a rule, active = well fitted inhibition curve with a large enough effect; inconclusive = small, poorly fitted or top-dose-only effect; inactive = no such curve, though single readings can be large or run the other way. The list shows a part of the results.

The assay is described as follows: Primary qHTS for Identification of Small Molecule Inhibitors of Huntingtin Promoter Activity. Also: nearly all actives have a fitted effect of over 50% in size. The note with it: HEK293 HTT promoter firefly luciferase reporter (activity 0% = vehicle and -100% = no light), 24 h; series mostly up to 57.5 µM; activity change, negative = inhibition: at the top concentration. In a few lines:
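HEK293 Fluc reporter, 2,500 cells/well, 24 h pre-culture; cpds up to 57.5 uM final, 24 h 37 degrees C; Dual-Glo, 10 min RT; normalized vehicle = 0%, zero RLU = -100%.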
Background: qHTS replaces the single test concentration by a dilution series.
Regarding `Cc1ccc(-c2nc3c(c(SCC(=O)N4CCCCC4)n2)Cc2cc(C)ccc2O3)cc1`, the “activity change, negative = inhibition” value is inactive: -18.4%. `CC(C)=CCC[C@@](C)(O)[C@H]1CC=C(C)CC1`: the “activity change, negative = inhibition” value is inactive: 14%.

For the molecule `CCn1c(CNC(=O)c2ccc(OC)cc2)nnc1SCC(=O)Nc1ccc(OC)cc1`, the “activity change, negative = inhibition” value was inactive: 9.32%. Next, `Cc1nn(Cc2noc(C(=O)NCc3ccc(F)cc3)n2)c(C)c1Br`: inactive: -13.9%; `O=C(NCCc1ccccc1)c1ccc2c(c1)N(Cc1ccccc1Cl)C(=O)c1ccccc1S2`: inactive: 6.33%; `COc1ccc(-c2nc3scc(CCNS(=O)(=O)c4ccc(F)cc4F)n3n2)cc1OC`: inactive: -23.2%. Consider `CC(C)NC(=O)Nc1ccc2c(c1)N(C)C(=O)c1ccccc1S2`, for which the “activity change, negative = inhibition” value was inactive: 0.23%. As to `CCOC(=O)c1cccc(NC(=O)CSc2ncc3c(n2)-c2ccccc2N(C)S3(=O)=O)c1`, the “activity change, negative = inhibition” value was inactive: -14.8%. As for `COc1ccccc1CNC(=O)C(Cc1ccccc1)NS(=O)(=O)c1ccc2c(c1)oc(=O)n2C` (stereo not given), the “activity change, negative = inhibition” value is inactive: -24.2%. For the molecule `CCOc1ccc(CC(=O)Nc2ccc3nc(N4CCCCC4)cc(C)c3c2)cc1OCC`, the “activity change, negative = inhibition” value was inactive: -8.07%. With `CCc1nnc(NC(=O)CSc2nc3c([nH]c4ccccc43)c(=O)n2-c2cc(C)cc(C)c2)s1` the figure was inactive: 3.91%. With `Clc1cccc(CNc2ncnc3c2nc2n3CCCC2)c1`, the “activity change, negative = inhibition” value was inactive: -7.81%. On to `Cc1nnc(SCc2cc(=O)n3c(C)cccc3n2)s1`, for which the “activity change, negative = inhibition” value was inactive: 46%.

For the molecule `CCOc1ccc(Cn2c(=O)oc3ccccc32)cc1`, the “activity change, negative = inhibition” value is inactive: 8.42%. `Cc1ccc(-c2noc(COc3ccc(Br)c(C)c3)n2)cc1`: the “activity change, negative = inhibition” value was inactive: -18.9%.

Regarding `O=C1C(=O)c2ccccc2C(O)=C1C1CCC(c2ccc(Cl)cc2)CC1` (stereo not given), the “activity change, negative = inhibition” value was inactive: -3.08%.

For `O=C(Cn1c(=O)n(Cc2ccc3c(c2)OCO3)c(=O)c2ccccc21)Nc1cccc(Cl)c1`, the “activity change, negative = inhibition” value is inactive: -21%. In the case of `NS(=O)(=O)c1ccc(NC(=O)CCn2c(=O)oc3ccccc32)cc1`, the “activity change, negative = inhibition” value is inactive: -9.97%. Next, `Cn1c(=O)oc2cc(S(=O)(=O)CCC(=O)NCc3ccccc3)ccc21`: inactive: -10% [at 11.5 µM].

`CCOc1ccc(N(C)S(=O)(=O)c2ccc3c(c2)C(C)(C)C(=O)N3C)cc1`: the “activity change, negative = inhibition” value is inactive: -10.4%.

On to `CCOc1ccc(N2CC(c3nc(-c4cc(OC)c(OC)c(OC)c4)no3)CC2=O)cc1` (stereo not given), for which the “activity change, negative = inhibition” value was inactive: 0%. For the molecule `Cc1ccc(-n2nnc3c(sc4nc(C)c(C)cc43)c2=O)cc1Cl`, the “activity change, negative = inhibition” value is inactive: 2.46%. Take `Cc1ccc(C)c(NC(=O)C2CCCN(S(=O)(=O)c3c(C)noc3/C=C/N(C)C)C2)c1` (stereo not given): the “activity change, negative = inhibition” value was inactive: -14.1%.

For `CCOC(=O)c1c(C)oc2nc(C)nc(NCC3CCN(Cc4ccc(Cl)cc4)CC3)c12`, the “activity change, negative = inhibition” value is inactive: -8.04%. With `CCN(c1ccccc1)S(=O)(=O)c1nnc(NC(=O)COc2ccc(OC)cc2)s1`, the “activity change, negative = inhibition” value was inactive: -9.55%. For the molecule `O=C1C(CCC(O)c2ccc(F)cc2)C(c2ccc(O)cc2)N1c1ccc(F)cc1` (stereo not given), the “activity change, negative = inhibition” value was inactive: -28.2%. In the case of `COCCNC(=O)C1CCN(S(=O)(=O)c2ccc3c(c2)CCCN3C(C)=O)CC1`, the “activity change, negative = inhibition” value was inactive: -4.57%. As to `COc1ccc(-c2nc3n(n2)C(c2ccc(OC)cc2)C(C(=O)Nc2cccnc2)=C(C)N3)cc1` (stereo not given), the “activity change, negative = inhibition” value is inactive: -21.7%. Consider `CCOC(=O)c1[nH]c(C)c(CCC(=O)N2CCN(c3ccccc3)CC2)c1C`, for which the “activity change, negative = inhibition” value is inactive: -10.3%.

Consider `CC1=C(c2ccc(C)c(C)c2)S(=O)(=O)N=C1N1CCN(c2cccc(C(F)(F)F)c2)CC1`, for which the “activity change, negative = inhibition” value was inactive: -10%. As to `Cc1ccc(NC(=O)Cn2c(=O)n(-c3ccc(CC(=O)NCC4CCCO4)cc3)c(=O)c3ccccc32)cc1` (stereo not given), the “activity change, negative = inhibition” value was inactive: -3.8%.

On to `CCOc1ccc(-n2c(=O)c3c4c(sc3n(Cc3cccc(Cl)c3)c2=O)CCCC4)cc1`, for which the “activity change, negative = inhibition” value was inactive: -4.65%. On to `CCCC(=O)N(c1ccc2oc(-c3ccccc3)c(C(=O)OCC)c2c1)S(=O)(=O)c1ccc(C)cc1`, for which the “activity change, negative = inhibition” value was inactive: -1.62%. Take `COCCCNC(=O)Cn1c(=O)n(CCCC(=O)NCc2ccc(C)cc2)c(=O)c2ccccc21`: the “activity change, negative = inhibition” value was inactive: -5.04%. As for `O=C(NCC(c1ccc2c(c1)OCO2)N1CCOCC1)c1ccc(F)cc1` (stereo not given), the “activity change, negative = inhibition” value was inactive: -7.55%. Consider `Cc1ccc(/C=C(\C#N)c2nc(-c3cc4c(ccc5ccccc54)oc3=O)cs2)cc1`, for which the “activity change, negative = inhibition” value is inactive: -14.4%. In the case of `CCn1cc(C(=O)N2CCN(c3ccccc3OC)CC2)c(=O)c2cc(S(=O)(=O)N3CCCCC3)ccc21`, the activity change, negative = inhibition was inactive: -26.4% [at 11.5 µM]. Take `Cc1cccc(C(=O)Nc2ccccc2-c2nc(-c3ccccc3)no2)c1`: the “activity change, negative = inhibition” value was inactive: 9.87%. For `O=C(CCSCc1ccccc1F)N1CCN(c2ccc(F)cc2)CC1`, the “activity change, negative = inhibition” value is inactive: -6.72%. In the case of `Cn1cc(C(=O)NCc2ccc(F)cc2)c(=O)c2cc(S(=O)(=O)N3CCCCC3)ccc21`, the activity change, negative = inhibition is inactive: -19.4% [at 11.5 µM]. For `CCOc1ccccc1NC(=O)Cn1c(=O)n(Cc2ccc(C(=O)NCCCOC)cc2)c(=O)c2ccccc21`, the “activity change, negative = inhibition” value is inactive: -3.68%.

On to `COc1cc(OC)c(NC(=O)c2oc3ccc4c(c3c2C)C(=O)CC(C)(C)O4)cc1Cl`, for which the “activity change, negative = inhibition” value is inactive: -3.85%. As to `O=C(O)c1cccc(NC(=O)c2cccc(S(=O)(=O)Nc3cccc(C(=O)O)c3)c2)c1`, the “activity change, negative = inhibition” value is inactive: -3.2%. Turning to `CCn1c(=O)c2cc(C(=O)N(C)c3cc(C)ccc3C)sc2c2ccccc21`, the “activity change, negative = inhibition” value is inactive: -11.8%.

Take `CC(C)c1ccc(Nc2nc3ccc(C(=O)c4ccccc4)cc3n3cnnc23)cc1`: the “activity change, negative = inhibition” value is inactive: -35.4%. As for `CCN(C(=O)c1sc2nc3n(c(=O)c2c1C)CCCCC3)c1ccccc1F`, the “activity change, negative = inhibition” value was inactive: -6.87%. For `Cc1ccc(NC(=O)Nc2nnc(N3CCCCC3)s2)c(C)c1`, the “activity change, negative = inhibition” value is inactive: -0.353%. With `CCc1ccc(CNC(=O)c2cc3c(=O)oc4ccc(C)cc4c3s2)cc1`, the “activity change, negative = inhibition” value was inactive: -6.01%. Regarding `COc1ccc(NC(=O)c2ccc3snnc3c2)cc1OC`, the “activity change, negative = inhibition” value was inactive: 9.94%. As to `CN(C)C(=O)c1ccc(S(=O)(=O)NCc2ccccc2Cl)s1`, the “activity change, negative = inhibition” value was inactive: -11.9%. For the molecule `COc1cc(OC)cc(-n2c(=O)[nH]c3cc(C(=O)NCCc4ccc(C)cc4)ccc3c2=O)c1`, the “activity change, negative = inhibition” value is inactive: -15%. Consider `COc1ccc(-n2cc3c(c2-c2cccc(Br)c2)c(=O)n(C)c(=O)n3C)cc1OC`, for which the “activity change, negative = inhibition” value is inactive: 3.42%. Take `COc1ccc(-c2cc(C(F)(F)F)nc(SCC(=O)NCc3ccc(F)cc3)n2)cc1`: the “activity change, negative = inhibition” value is inactive: -0.473%. Next, `COc1cccc(NC(=O)Cn2c(=O)n(Cc3ccccc3)c(=O)c3c4c(sc32)CN(C(C)=O)CC4)c1`: inactive: -4.1%.

As to `COC(=O)c1ccccc1NC(=O)c1nc(SCc2ccccc2C)ncc1Cl`, the “activity change, negative = inhibition” value is inactive: -13.5%. Turning to `O=c1c2oc3ccccc3c2n(Cc2ccccc2F)c(=O)n1Cc1ccco1`, the “activity change, negative = inhibition” value is inactive: -12.2%.

Turning to `Cc1c(CNCCCc2ccccc2)c(C(=O)O)c(C)n1Cc1ccc(Cl)cc1`, the “activity change, negative = inhibition” value was inactive: -25.2%.

Turning to `Cc1cc(=O)[nH]c2nnc(SCc3cccc(F)c3)n12`, the “activity change, negative = inhibition” value is inactive: -15.3%. In the case of `CCOC(=O)NNc1nncc2ccccc12`, the “activity change, negative = inhibition” value was inactive: 12.8%. Next, `COc1ccc(S(=O)(=O)NC2(C(F)(F)F)NC(=O)N(CCc3ccccc3)C2=O)cc1` (stereo not given): inactive: 2.68%.

These data come from PubChem BioAssay AID1508623 (National Center for Advancing Translational Sciences (NCATS), 2021).
